The values that follow come from the supplement of paper PMC10670038.

Each structure is given as a SMILES string. Counter-ions that a name gives are not always drawn. ± gives the standard deviation of the averaged measurements. In all, about 2,000 compounds were measured (“relative cell viability vs DMSO, compound + 0.2 uM CuET”: median about 1, lowest 2% from about 0.25 on). The list shows a part of the results.

In the experiment the test system is TE10. Nature of the experiment: relative cell viability vs DMSO, compound + 0.2 uM CuET (fraction); TE10 is an esophageal squamous carcinoma line; higher = less cytotoxic. The conditions noted are these: 2 µM; co-treatment: CuET (bis(diethyldithiocarbamate)copper) 0.2 uM; 48 h. The method, then: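 TE10 ESCC cells (1,000/well, 384-well plates) were treated with Selleck bioactive library compounds at 2 uM combined with 0.2 uM CuET (copper diethyldithiocarbamate) for 48 h. Viability was read by CellTiter-Glo and expressed relative to DMSO wells. Two technical replicates (A, B).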
On to `C=C1C[C@@H]2[C@H](CC[C@]3(C)C(=O)CC[C@@H]23)[C@@]2(C)C=CC(=O)C=C12` [Exemestane], for which the relative cell viability was 1.037 ± 0.0051. For the molecule `C[C@H]1CNCCc2ccc(Cl)cc21` [Lorcaserin HCl], the relative cell viability turned out to be 1.18 ± 0.13. As for `COc1cc(C)[nH]c(=O)c1CNC(=O)c1c(C)n([C@H](C)C2CCOCC2)c2ccccc12`, the relative cell viability was determined as 1.18 ± 0.017. Take `CN(C)[C@@H]1C(=O)C(C(N)=O)=C(O)[C@@]2(O)C(=O)C3=C(O)c4c(O)cccc4[C@@](C)(O)[C@H]3[C@H](O)[C@@H]12` [Oxytetracycline Dihydrate]: the relative cell viability was determined as 1.11 ± 0.014. Take `CN(C)[C@@H]1C(=O)C(C(N)=O)=C(O)[C@@]2(O)C(=O)C3=C(O)c4c(O)cccc4[C@@](C)(O)[C@H]3[C@H](O)[C@@H]12` [Oxytetracycline (Terramycin)]: the relative cell viability amounted to 1.054 ± 0.0011. The same measure for `CN1C(=O)CCS(=O)(=O)C1c1ccc(Cl)cc1` (stereo not given) [Chlormezanone]: 1.08 ± 0.047. The same measure for `O=P1(N(CCCl)CCCl)NCCCO1` (stereo not given) [Cyclophosphamide Monohydrate]: 1.07 ± 0.078; for `c1ccc2c(c1)sc1ccccc12` [Dibenzothiophene]: 1.16 ± 0.19. Turning to `Cc1ccc(-n2nccn2)c(C(=O)N2CCN(c3nc4cc(Cl)ccc4o3)CC[C@H]2C)c1` [Suvorexant (MK-4305)], the relative cell viability is 0.801 ± 0.017. The same measure for `CCCN1CCO[C@@H]2c3cc(O)ccc3OC[C@H]21`: 1.04 ± 0.028; for `CCCCCCCCCCCCCCCC[n+]1ccccc1` [Cetylpyridinium Chloride]: 0.857 ± 0.057; for `Cc1sc2c(c1C)C(c1ccc(Cl)cc1)=N[C@@H](CC(=O)OC(C)(C)C)c1nnc(C)n1-2`: 0.586 ± 0.068. Regarding `CCc1cc2c(s1)-n1c(C)nnc1CN=C2c1ccccc1Cl` [Etizolam], the relative cell viability is 1.14 ± 0.17. With `Cc1sc2c(c1C)C(c1ccc(Cl)cc1)=NC(CC(N)=O)c1nnc(C)n1-2` (stereo not given), the relative cell viability was found to be 0.695 ± 0.058. As for `OC(c1ccccc1)(c1ccccc1)C1CCNCC1` [Azacyclonol], the figure is 1.34 ± 0.36; as for `COc1cc(OC)c(OC)cc1C=O` [Asaraldehyde], 1.08 ± 0.073.

Turning to `CCC1(C)CC(=O)NC(=O)C1` [Bemegride], the relative cell viability worked out at 1.09 ± 0.04. As to `C/C(O)=C(\C#N)C(=O)Nc1cc(Br)ccc1Br`, the relative cell viability came out at 1.17 ± 0.16. With `CCN(Cc1ccc(Cl)nc1)/C(=C/[N+](=O)[O-])NC` [Nitenpyram], the relative cell viability is 1.101 ± 0.0088.

Consider `Cc1ccccc1-n1c(Cn2ncc3c(N)ncnc32)nc2cccc(C)c2c1=O`, for which the relative cell viability stood at 1.15 ± 0.18.

As for `CCN1CC2(OC(=O)c3ccccc3NC(C)=O)CCC(OC)C34C1C(CC23)C1(O)CC(OC)C2CC4C1(O)C2OC` (stereo not given) [Lappaconite HBr], the relative cell viability is 1.049 ± 0.0027. The same measure for `CN(C)C(=O)Oc1ccc[n+](C)c1` [Pyridostigmine Bromide]: 1.04 ± 0.019; for `CN1CCN(c2nc3ccccc3nc2Cl)CC1`: 1.15 ± 0.04; for `Cc1cc2c(C(C)C)c(O)c(O)c(C=O)c2c(O)c1-c1c(C)cc2c(C(C)C)c(O)c(O)c(C=O)c2c1O`: 0.744 ± 0.063. For `Cc1cc2c(C(C)C)c(O)c(O)c(C=O)c2c(O)c1-c1c(C)cc2c(C(C)C)c(O)c(O)c(C=O)c2c1O` [Gossypol], the relative cell viability is 0.73 ± 0.078. The same measure for `CC(C)NCC(O)c1ccccc1Cl` (stereo not given) [Clorprenaline HCl]: 1.22 ± 0.12. Turning to `O=c1[nH]c2ccc(Cl)cc2c(N[C@@H]2CN3CCC2CC3)c1-c1nc2ccccc2[nH]1`, the relative cell viability was 0.813 ± 0.024. The same measure for `CCN(CC)C(=O)c1ccc(C2=CC3(CCNCC3)Oc3cccc(O)c32)cc1`: 0.973 ± 0.04; for `C[C@]12CCC(=O)C(O)=C1CC[C@@H]1[C@@H]2CC[C@]2(C)C(=O)CC[C@@H]12` [Formestane]: 1.165 ± 0.0091.

In the case of `CCOc1ccccc1-n1c(C(C)N2CCN(C(=O)COc3ccc(Cl)cc3)CC2)nc2ccccc2c1=O` (stereo not given) [Erastin], the relative cell viability worked out at 0.859 ± 0.025. As for `CN1[C@@H]2CC[C@H]1C[C@@H](OC(=O)C(CO)c1ccccc1)C2` (stereo not given in full) [Atropine], the figure is 0.8202 ± 0.0076; as for `CCC1=C[C@H]2CN3CCc4c([nH]c5ccccc45)[C@](C(=O)OC)(C2)[C@H]13` [Catharanthine], 1.11 ± 0.09; as for `CNCC(O)c1ccc(O)cc1` (stereo not given) [Synephrine HCl], 1.16 ± 0.028. The same measure for `CNCC(O)c1ccc(O)cc1` (stereo not given) [Synephrine]: 1.108 ± 0.0039; for `CCc1c(C(=O)C(N)=O)c2c(OCC(=O)O)cccc2n1Cc1ccccc1`: 1.14 ± 0.12. For the molecule `Cc1sc2c(c1C)C(c1ccc(Cl)cc1)=N[C@@H](CC(=O)Nc1ccc(O)cc1)c1nnc(C)n1-2`, the relative cell viability came out at 0.666 ± 0.046. As for `COc1ccc(C(CN(C)C)C2(O)CCCCC2)cc1` (stereo not given) [Venlafaxine], the figure is 1.08 ± 0.15; as for `Cc1cccc(C)c1NC(=O)CN1CCCC1=O` [Nefiracetam], 1.14 ± 0.013. The same measure for `Cc1cccc(Cc2c[nH]cn2)c1C` [Detomidine HCl]: 1.07 ± 0.12; for `N#CC(C#N)=Cc1ccc(O)c(O)c1`: 0.937 ± 0.14. Consider `Cn1cc(C2=C(c3cn(C4CCN(Cc5ccccn5)CC4)c4ccccc34)C(=O)NC2=O)c2ccccc21`, for which the relative cell viability is 1.16 ± 0.22. As for `C=CCN1CC[C@]23c4c5ccc(O)c4O[C@H]2C(=O)CC[C@@]3(O)[C@H]1C5` [Naloxone HCl Dihydrate], the figure is 1.17 ± 0.097. With `C[C@@H]1CC[C@@]2(OC1)O[C@H]1C[C@H]3[C@@H]4CC=C5C[C@@H](O[C@@H]6O[C@H](CO)[C@@H](O[C@@H]7O[C@@H](C)[C@H](O)[C@@H](O)[C@H]7O)[C@H](O)[C@H]6O[C@@H]6O[C@@H](C)[C@H](O)[C@@H](O)[C@H]6O)CC[C@]5(C)[C@H]4CC[C@]3(C)[C@H]1[C@@H]2C` [Dioscin], the relative cell viability came out at 0.265 ± 0.027.

As for `O=C(NCC1CCOCC1)c1cnc(Nc2ccc(Cl)cc2Cl)nc1C(F)(F)F`, the relative cell viability was 1.04 ± 0.043. As for `O=C1C=CC[C@@H]2[C@H]3CCCN4CCC[C@@H](CN12)[C@@H]34` [Sophocarpine], the figure is 0.9413 ± 0.0051; as for `CC(=O)O[C@H]1C[C@@H]2CC[C@@H]3[C@H](CC[C@@]4(C)[C@H]3C[C@H]([N+]3(C)CCCCC3)[C@@H]4OC(C)=O)[C@@]2(C)C[C@@H]1[N+]1(C)CCCCC1` [Pancuronium dibromide], 1.004 ± 0.0074; as for `c1ccc2c(c1)Nc1ccccc1S2` [Phenothiazine], 1.06 ± 0.12. As for `CN1CCCCC1Cn1cc(C(=O)c2cc([N+](=O)[O-])ccc2I)c2ccccc21` (stereo not given), the figure is 0.895 ± 0.05; as for `O=c1ccc2cc(O[C@@H]3O[C@H](CO)[C@@H](O)[C@H](O)[C@H]3O)c(O)cc2o1` [Esculin], 1.11 ± 0.043. As for `CN(C)[C@@H]1C(=O)C(C(N)=O)=C(O)[C@@]2(O)C(=O)C3=C(O)c4c(O)cccc4[C@@](C)(O)[C@H]3C[C@@H]12` [Tetracycline HCl], the figure is 1.28 ± 0.054.

As to `CC(NC(C)(C)C)C(=O)c1cccc(Cl)c1` (stereo not given) [Amfebutamone HCl], the relative cell viability is 1.12 ± 0.019.

Consider `CC(C)[C@]12O[C@H]1[C@@H]1O[C@]13[C@]1(O[C@H]1C[C@H]1C4=C(CC[C@@]13C)C(=O)OC4)[C@@H]2O` [Triptolide (PG490)], for which the relative cell viability turned out to be 0.773 ± 0.019.

Take `CC(C)(C)c1cc(C=C(C#N)C#N)cc(Br)c1O`: the relative cell viability was 0.508 ± 0.18. For the molecule `O=C1CC[C@@]2(O)[C@H]3Cc4ccc(O)c5c4[C@@]2(CCN3CC2CC2)[C@H]1O5` [Naltrexone HCl], the relative cell viability is 1.018 ± 0.0067.

`Cn1c(CCCC(=O)O)nc2cc(N(CCCl)CCCl)ccc21` [Bendamustine HCl]: the relative cell viability worked out at 1.14 ± 0.11. As for `N[C@@H]1C[C@H]1c1ccccc1` [Tranylcypromine (2-PCPA) HCl], the relative cell viability was found to be 1.11 ± 0.084. Regarding `CN(C)CCc1ccc(O)cc1` [Hordenine], the relative cell viability amounted to 1.1 ± 0.053. The same measure for `C/C(=C\c1csc(C)n1)[C@@H]1C[C@@H]2O[C@@H]2CCC[C@H](C)[C@H](O)[C@@H](C)C(=O)C(C)(C)[C@@H](O)CC(=O)O1` [Epothilone A]: 0.882 ± 0.11; for `COc1ccc(N(C(=O)Oc2c(C)cccc2C)c2ccnc(Nc3ccc(N4CCN(C)CC4)cc3)n2)c(OC)c1`: 1.44 ± 0.13; for `COC1=C[C@@H]2[C@@H]3Cc4ccc(OC)c(O)c4[C@]2(CCN3C)CC1=O` [Sinomenine]: 1.06 ± 0.09. As for `O=[N+]([O-])C=Cc1ccc2c(c1)OCO2` [MNS (3,4-Methylenedioxy-β-nitrostyrene, MDBN)], the figure is 0.293 ± 0.022; as for `CN1[C@@H]2C[C@@H](OC(=O)[C@H](CO)c3ccccc3)C[C@H]1[C@@H]1O[C@@H]12` [Scopolamine HBr], 1.031 ± 0.0073. For the molecule `CCOC(=O)c1cncn1[C@H](C)c1ccccc1` [Etomidate], the relative cell viability stood at 1.1 ± 0.018. For the molecule `CCN1CCN(C(=O)Cc2ccc(Nc3ncc(F)c(Nc4ccc(C(=O)Nc5ccccc5Cl)cc4)n3)cc2)CC1` [Aurora A Inhibitor I], the relative cell viability was 0.182 ± 0.01. `CN1CCc2cc3c(cc2C1C1OC(=O)c2c1ccc1c2OCO1)OCO3` (single isomer, unassigned; (+)) [(+)-Bicuculline]: the relative cell viability amounted to 1.24 ± 0.2.

With `CC(O)(CS(=O)(=O)c1ccc(F)cc1)C(=O)Nc1ccc(C#N)c(C(F)(F)F)c1` (stereo not given) [Bicalutamide], the relative cell viability amounted to 1.14 ± 0.015. For the molecule `O=c1cccc2n1C[C@@H]1CNC[C@H]2C1` [Cytisine], the relative cell viability came to 1.07 ± 0.033. The same measure for `O=C(O)c1nn(Cc2ccc(Cl)cc2Cl)c2ccccc12` [Lonidamine]: 1.07 ± 0.016; for `Cc1cc(C(C#N)c2ccc(Cl)cc2)c(Cl)cc1NC(=O)c1cc(I)cc(I)c1O` (stereo not given) [Closantel]: 1.17 ± 0.069; for `CC(C)(C)c1cc(C=C(C#N)C#N)cc(C(C)(C)C)c1O` [Tyrphostin 9]: 0.424 ± 0.074. For the molecule `c1ccc([C@@H]2C[C@H]2NC2CCNCC2)cc1`, the relative cell viability came out at 1.14 ± 0.036. With `C[C@]12CC[C@H](O)CC1=CC[C@@H]1[C@@H]2CC[C@]2(C)C(=O)CC[C@@H]12` [Dehydroepiandrosterone (DHEA)], the relative cell viability was found to be 1.08 ± 0.028. Turning to `CC(C)OC(=O)[C@H](C)N[P@](=O)(CO[C@H](C)Cn1cnc2c(N)ncnc21)Oc1ccccc1` [Tenofovir Alafenamide (GS-7340)], the relative cell viability came to 1.17 ± 0.021. As for `O=[N+]([O-])c1ncc[nH]1` [Azomycin], the figure is 1.09 ± 0.03; as for `CC[C@H](C)[C@@H]([C@@H](CC(=O)N1CCC[C@H]1[C@H](OC)[C@@H](C)C(=O)N[C@H](C)[C@@H](O)c1ccccc1)OC)N(C)C(=O)[C@@H](NC(=O)[C@@H](NC)C(C)C)C(C)C` [Monomethyl auristatin E (MMAE)], 0.681 ± 0.035.
